{"source": "PubChem BioAssay AID588453", "about": "(National Center for Advancing Translational Sciences (NCATS), 2011)", "note": "“And” between values parts separate entries of the source, which are not always exact repeats. Equal entries are not always repeated. The whole screen tested about 390,000 compounds, of which about 4,000 (1%) were called active. The inconclusive results got no clear call from the source; some entries with a clear call stand among them for comparison. Calls come from the whole dose curve; as a rule, active = well fitted inhibition curve with a large enough effect; inconclusive = small, poorly fitted or top-dose-only effect; inactive = no such curve, though single readings can be large or run the other way. Potencies of inconclusive entries are doubtful fits and often do not repeat. % is set by controls: 0 for no effect and ±100 for the full control effect; potency is the fitted concentration of half-maximal effect; tags give direction and shape of the fitted curve.", "data": [{"target": "Thioredoxin reductase 1, cytoplasmic (Rattus norvegicus) (UniProt O89049)", "sequence (O89049 whole entry, looked up)": "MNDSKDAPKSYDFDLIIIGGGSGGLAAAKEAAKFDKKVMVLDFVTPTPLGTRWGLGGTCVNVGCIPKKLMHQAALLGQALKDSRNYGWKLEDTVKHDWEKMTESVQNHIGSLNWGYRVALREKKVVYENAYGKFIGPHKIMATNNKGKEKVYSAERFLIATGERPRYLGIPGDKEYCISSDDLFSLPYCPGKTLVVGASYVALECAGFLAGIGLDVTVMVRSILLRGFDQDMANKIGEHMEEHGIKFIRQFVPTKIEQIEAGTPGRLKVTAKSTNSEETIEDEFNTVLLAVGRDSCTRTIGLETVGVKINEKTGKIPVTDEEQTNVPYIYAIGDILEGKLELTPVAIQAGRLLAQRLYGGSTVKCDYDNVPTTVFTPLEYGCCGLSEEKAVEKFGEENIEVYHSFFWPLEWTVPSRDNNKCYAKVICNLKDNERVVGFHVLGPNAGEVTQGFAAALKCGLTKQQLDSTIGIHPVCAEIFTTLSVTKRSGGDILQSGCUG", "assay": "qHTS Assay for Inhibitors of Mammalian Selenoprotein Thioredoxin Reductase 1 (TrxR1): qHTS; note: nearly all actives have a fitted effect of over 65% in size", "settings": "recombinant rTrxR1, NADPH fluorescence consumption, selenite substrate; series mostly up to 114 µM", "method_in_brief": "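Rat TrxR1 (90 nM in the dispensed reagent) was pre-reduced with 400 uM NADPH for 5 min at room temperature, then incubated with compound for 15 min. After 400 uM selenite was added, NADPH fluorescence (Ex 340/Em 450 nm) was followed for 8 min.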", "values": [{"smiles": "CCOC(=O)CSC1=C(C#N)C(=O)NC(c2ccc(OC)cc2)S1", "note": "(centres undefined)", "Potency": "inconclusive: 22.4 µM [inhibitor, full curve]"}, {"smiles": "O=C(COC(=O)c1ccc([N+](=O)[O-])o1)NCc1ccc(F)cc1", "Potency": "inconclusive: 15.8 µM [inhibitor, full curve]"}, {"smiles": "NCC(O)c1ccc(O)c(O)c1", "note": "(centres undefined)", "Potency": "inconclusive: 13.4 µM [inhibitor, partial curve] and inconclusive: 15.8 µM [inhibitor, partial curve]"}, {"smiles": "Cc1c(CCC(=O)O)c(=O)oc2cc(OCc3ccccc3Br)ccc12", "Potency": "inconclusive: 56.2 µM [inhibitor, partial curve, poor fit]"}, {"smiles": "O=S(=O)(CCN1CCN(c2ccccc2O)CC1)c1cc(Cl)ccc1Cl", "Potency": "inconclusive: 50.1 µM [inhibitor, partial curve]"}, {"smiles": "CCOC(=O)c1cc(S(=O)(=O)N2CCN(c3cccc(C)c3C)CC2)[nH]n1", "Potency": "inactive"}, {"smiles": "CCOC(=O)c1ccc2c(c1)nc(SCC(=O)c1ccco1)n2CC", "Potency": "inconclusive: 8.91 µM [inhibitor, partial curve]"}, {"smiles": "O=C(O)c1cnc2[nH]c3ccccc3n2c1=O", "Potency": "inconclusive: 25.1 µM [inhibitor, full curve, poor fit]"}, {"smiles": "O=C(CN1CCN(Cc2ccccc2F)C1=O)NCc1ccco1", "Potency": "inconclusive: 50.1 µM [inhibitor, partial curve]"}, {"smiles": "O=C(NCCc1csc(-c2cccnc2)n1)c1ccc(Br)o1", "Potency": "inconclusive: 25.1 µM [inhibitor, single point]"}, {"smiles": "CCN(c1ccccc1C)S(=O)(=O)c1nnc(NC(=O)c2ccco2)s1", "Potency": "inconclusive: 50.1 µM [inhibitor, partial curve]"}, {"smiles": "O=C(CCl)Nc1cn(-c2ccccc2)nc1-c1ccc(F)cc1", "Potency": "inconclusive: 12.6 µM [inhibitor, partial curve]"}, {"smiles": "CCn1nc(NC(=O)c2ccco2)c2cc3ccccc3nc21", "Potency": "inconclusive: 25.1 µM [inhibitor, full curve]"}, {"smiles": "CC(=O)Nc1sc(N/N=C\\c2ccco2)nc1-c1cccs1", "Potency": "inconclusive: 7.94 µM [inhibitor, full curve]"}, {"smiles": "Cc1ccc(S(=O)(=O)CCC(=O)NCc2ccco2)cc1", "Potency": "inconclusive: 44.7 µM [inhibitor, single point]"}, {"smiles": "O=C(CSc1cccc2cccnc12)Nc1cc(C(=O)O)cc(C(=O)O)c1", "Potency": "inconclusive: 39.8 µM [inhibitor, partial curve, poor fit]"}, {"smiles": "C[C@H](CO)N1C[C@H](C)[C@@H](CN(C)Cc2ccncc2)Oc2c(NC(=O)Cc3ccccc3)cccc2C1=O", "Potency": "inconclusive: 56.2 µM [inhibitor, single point]"}, {"smiles": "Cn1c(SCC(=O)NNC(=S)Nc2ccccc2)nnc1-c1ccccc1", "Potency": "inconclusive: 39.8 µM [inhibitor, partial curve]"}, {"smiles": "O=C(Nc1ccncc1)c1ccc2ccccc2c1", "Potency": "inactive"}, {"smiles": "Cc1cccc(Oc2c([N+](=O)[O-])c(=O)n(C)c3ccccc23)c1", "Potency": "active: 3.16 µM"}, {"smiles": "C=CCn1c(SCC(=O)NCc2ccco2)nc2sc3c(c2c1=O)CCCC3", "Potency": "inactive"}, {"smiles": "O=C(/C=C/c1cccc([N+](=O)[O-])c1)Nc1cc(C(=O)O)cc(C(=O)O)c1", "Potency": "inactive"}, {"smiles": "Cc1ccc(CC(=O)Nc2c(C(=O)N3CCN(c4ccccc4F)CC3)oc3ccccc23)cc1", "Potency": "inconclusive: 56.2 µM [inhibitor, partial curve, poor fit]"}, {"smiles": "Cc1ccc(C(=O)CN2CCC(NC(=O)C3CCCCC3)CC2)cc1", "Potency": "inconclusive: 56.2 µM [inhibitor, partial curve]"}, {"smiles": "CCCCC1=CC2=C(c3ccco3)C(=O)C(C)(OC(=O)c3ccc(OC)cc3)C(=O)C2=CN1CCOC", "note": "(centres undefined)", "Potency": "inconclusive: 56.2 µM [inhibitor, partial curve]"}, {"smiles": "CN(c1ccccc1)S(=O)(=O)c1ccc(NC(=O)COc2ccccc2)cc1", "Potency": "inconclusive: 89.1 µM [inhibitor, single point]"}, {"smiles": "CC(=O)c1cccc(OCc2cc(C(=O)N(C)Cc3cnccn3)no2)c1", "Potency": "inconclusive: 15.8 µM [inhibitor, full curve]"}, {"smiles": "CNC(=O)c1ccc2nc(-c3ccccc3)c(-c3ccccc3)nc2c1", "Potency": "inactive"}, {"smiles": "O=C1CSC(=S)N1c1cccc(O)c1", "Potency": "inactive"}, {"smiles": "Cc1ccc(-c2nn3c(C)nnc3c3ccccc23)cc1S(=O)(=O)NC(C)c1ccccc1", "note": "(centres undefined)", "activity change, negative = inhibition": "inactive: 33.5% [at 11.4 µM]"}, {"smiles": "Cc1oc(-c2ccccc2)nc1CNC(=O)Nc1ccccc1", "Potency": "inactive"}, {"smiles": "COc1ccc(-c2nc3c(c(=O)[nH]c(=O)n3Cc3ccccc3)n2C)cc1", "Potency": "inactive"}, {"smiles": "C/C(=N/Nc1nc(C)cc(-c2ccccc2)n1)c1ccco1", "Potency": "inconclusive: 89.1 µM [inhibitor, single point]"}, {"smiles": "CCSc1nnc(-c2ccc(Cl)cc2Cl)o1", "Potency": "inactive"}, {"smiles": "CCC(C(=O)Nc1ccccn1)c1ccccc1", "note": "(centres undefined)", "Potency": "inconclusive: 39.8 µM [inhibitor, single point]"}, {"smiles": "CCOC(=O)N1CCN(C(=O)c2cc3c(=O)n4ccccc4nc3s2)CC1", "Potency": "inconclusive: 100 µM [inhibitor, single point]"}, {"smiles": "COC(=O)c1ccc(C2C(C(=O)c3ccco3)=C(O)C(=O)N2c2cc(C)on2)cc1", "note": "(centres undefined)", "Potency": "inconclusive: 44.7 µM [inhibitor, partial curve]"}, {"smiles": "CCCC(=O)Nc1nnc(/C=C/c2ccc(OC)cc2)s1", "Potency": "inactive"}, {"smiles": "N#C/C(=C\\N1CCN(Cc2ccc3c(c2)OCO3)CC1)c1nc2ccccc2s1", "Potency": "inconclusive: 14.1 µM [inhibitor, partial curve, poor fit]"}, {"smiles": "Cc1c(O)ccc(C(=O)CN2CCN(Cc3ccc4c(c3)OCO4)CC2)c1O", "Potency": "inconclusive: 39.8 µM [inhibitor, partial curve]"}, {"smiles": "O=C1C=CC(=O)c2c(O)c(CO)c(CO)c(O)c21", "Potency": "inconclusive: 39.8 µM [inhibitor, partial curve, poor fit]"}, {"smiles": "O=C1C(Cl)=C(NCCN2CCCCC2)C(=O)c2ccccc21", "Potency": "active: 11.2 µM"}, {"smiles": "CCCN=C1N/C(=C\\c2ccco2)C(=O)N1c1ccccc1", "Potency": "inactive"}, {"smiles": "CCOC(=O)c1c(NC(=S)Nc2ccccc2)sc2c1CC(C)(C)SC2", "Potency": "inconclusive: 17.8 µM [inhibitor, single point]"}]}]}
